Laboratory results as given in paper PMC7819943, “Rice protein-binding microarrays: a tool to detect cis-acting elements near promoter regions in rice”.
The list shows a part of the results.

target: T1, OsWOX13 (Oryza sativa, UniProt Q5QMM3 1-267); assay: protein-binding microarray (RPBM); PBS, 2% BSA, 51.3 ng/ul salmon testes DNA, 50 uM zinc acetate, 200 nM TF, 25 C, 1 h; high values mean tight binding; conditions: protein: recombinant; tags: N-terminal polyhistidine and DsRed monomer fusion (pET32a); label: CyDye5-dUTP incorporated in the synthesized complementary strand; 3' TTTTT single-stranded linker to array surface; dsDNA, one strand shown
T1 sequence: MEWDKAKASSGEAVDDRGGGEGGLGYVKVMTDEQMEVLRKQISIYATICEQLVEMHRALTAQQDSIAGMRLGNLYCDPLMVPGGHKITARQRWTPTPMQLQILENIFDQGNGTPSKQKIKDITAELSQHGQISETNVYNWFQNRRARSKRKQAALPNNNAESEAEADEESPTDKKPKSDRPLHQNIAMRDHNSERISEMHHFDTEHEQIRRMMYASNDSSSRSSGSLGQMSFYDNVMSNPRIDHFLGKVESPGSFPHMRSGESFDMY
How it was run: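 Transcription factors were each fused at the N-terminus to a polyhistidine tag plus DsRed and expressed in E. coli BL21-CodonPlus before Ni–NTA purification. Binding to a double-stranded custom Agilent array was carried out with 200 nM protein at 25 °C for 1 h in PBS, 2% BSA, salmon testes DNA and 50 µM zinc acetate. The binding signal is per-feature fluorescence intensity, in arbitrary units, on an Axon 4000B scanner.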

Sequence	binding signal
CGTAATTTGTTCTCCGAAGACGTATTTCGTAGAGAGGAGGCGGAGTCACCTAGTGCAG	22400 fluorescence intensity (a.u.)
TCTACAGTTTAGATAAATTACTTCTAAATTCATAAAATGTCGGAGTCACCTAGTGCAG	3390 fluorescence intensity (a.u.)
TTAAGGTTTATCCAATCACATTCAAAGTTACTAACTACAGCGGAGTCACCTAGTGCAG	3220 fluorescence intensity (a.u.)
GCATATAATTAGTTTACCATGGCTTTAATCAATCATATGCCGGAGTCACCTAGTGCAG	14900 fluorescence intensity (a.u.)
AATCAAATCATGGATATTTTGAAATTTAAAATAAAATCGACGGAGTCACCTAGTGCAG	6020 fluorescence intensity (a.u.)
GATGTTACTCCTAATTAAGAATTTCGGCATTTAGCAAGTACGGAGTCACCTAGTGCAG	4030 fluorescence intensity (a.u.)
GAAAATTGACTTCAATCCAAACAAGCCTAAAGTTTTACCACGGAGTCACCTAGTGCAG	31100 fluorescence intensity (a.u.)
GTGTGAATTTGATTTGCGTGGAGGGTGACACCGTGTGGTACGGAGTCACCTAGTGCAG	10900 fluorescence intensity (a.u.)
CAAGATGACATAATCAGTTATGTCACAGGAGACCACCAAACGGAGTCACCTAGTGCAG	15600 fluorescence intensity (a.u.)
ATGACCAAATTCATTGATTAGATTGTGTCATATTACTCAACGGAGTCACCTAGTGCAG	19900 fluorescence intensity (a.u.)
CGCTTCTTGATTTCTTCGTTTTGCTCGGACACTGTGACCGCGGAGTCACCTAGTGCAG	4970 fluorescence intensity (a.u.)
TTAATTTGATCGATAAGCAAGCTTATTTAGCTGATAAATCCGGAGTCACCTAGTGCAG	5160 fluorescence intensity (a.u.)
GGACGTGATTGAAACTCAACAACCGGTTAAGGGATGTGATCGGAGTCACCTAGTGCAG	44200 fluorescence intensity (a.u.)
GCAAAATTTAAAATTATGTTGTCATTTTAATATATTTGAACGGAGTCACCTAGTGCAG	13700 fluorescence intensity (a.u.)
AACTCAAATTAAATTAATATATTCCCTCCATCTCTAAATACGGAGTCACCTAGTGCAG	6660 fluorescence intensity (a.u.)
GTTATGAGACTGATCAATTTTCATTAGATTTGCTCACTGCCGGAGTCACCTAGTGCAG	5640 fluorescence intensity (a.u.)
AACTATTAATTAATTCCCTGGGTCTATAATGATTTTGGATCGGAGTCACCTAGTGCAG	30500 fluorescence intensity (a.u.)
AAGCTTATTGGGATAAATTAGCTAAAGAGAGGGTGTAGTGCGGAGTCACCTAGTGCAG	5050 fluorescence intensity (a.u.)
ACAAAATTTAGTATATACAGACCTTTTCCTATAAAGTCAACGGAGTCACCTAGTGCAG	4810 fluorescence intensity (a.u.)
ACCACCATTTAATTGGGCCACCCTCCCCACCCGTCTCTCACGGAGTCACCTAGTGCAG	10300 fluorescence intensity (a.u.)
AACAGTCAGTTTCCATTAATTAATGGGCGCCATAGCTGTGCGGAGTCACCTAGTGCAG	15900 fluorescence intensity (a.u.)

Sequence	binding signal
CTAAACTCCCTATCAATTTGTACCATGTGTACTAAACAAGCGGAGTCACCTAGTGCAG	16500 fluorescence intensity (a.u.)
TTAGCGAATTAATTAGTGTGGTAATCAGCTGCTAACTACGCGGAGTCACCTAGTGCAG	15600 fluorescence intensity (a.u.)
ATATATATGATGAAATGTGACTAGCTAAATTTATCTAAGCCGGAGTCACCTAGTGCAG	3590 fluorescence intensity (a.u.)
CGCAACCGCAATCACATTGTGTTATCTTGTCTCCGGCCAGCGGAGTCACCTAGTGCAG	6350 fluorescence intensity (a.u.)
ATGAAATTTAATTCCAGCTTAGCAGATAATATGATTCGGGCGGAGTCACCTAGTGCAG	4180 fluorescence intensity (a.u.)
TAAAATTAGGATGACAGAGCATCCTAGGCAATAATTAAGCCGGAGTCACCTAGTGCAG	6600 fluorescence intensity (a.u.)
GAAAATGATAATCATATTTGCATATGGATCTTTGATAGGACGGAGTCACCTAGTGCAG	19900 fluorescence intensity (a.u.)
TGTTAGATGATAAAACATGATTAATATTTTATGTGTGACTCGGAGTCACCTAGTGCAG	4360 fluorescence intensity (a.u.)
TCTTAAGTTTGTAATAATTAAAACTCAATTAGTCACACGACGGAGTCACCTAGTGCAG	6950 fluorescence intensity (a.u.)
GTGATGATATAAACACAAATTCTATTTGCGTTGCACACTGCGGAGTCACCTAGTGCAG	5700 fluorescence intensity (a.u.)
AATCCTTAACTGCTCGGATATTTCAATTTGGTCACCAGAGCGGAGTCACCTAGTGCAG	4480 fluorescence intensity (a.u.)
ACAACAATTGATGGACCTGAAGCCAATGTATAGGCCACCCCGGAGTCACCTAGTGCAG	6950 fluorescence intensity (a.u.)
ACTGTTGATTCGGGTTAAATTGTCACATTGGACAAAACCACGGAGTCACCTAGTGCAG	10600 fluorescence intensity (a.u.)
GAAGAAATTGAACGCGACAACGAGTGCATGTCATATTCAGCGGAGTCACCTAGTGCAG	4560 fluorescence intensity (a.u.)
CAATACCAACAATCAATCAATTGTCTTTTAAATTGGTCCACGGAGTCACCTAGTGCAG	36300 fluorescence intensity (a.u.)
GCAGGGAATTGATGAGCTCCGTGATTGGACTGCCAAACGCCGGAGTCACCTAGTGCAG	45600 fluorescence intensity (a.u.)
GTCACTGACTGACTAAATCGAAACAAGTCAAACAACCAAACGGAGTCACCTAGTGCAG	15200 fluorescence intensity (a.u.)
CCAAATCATTGGCAAATTTTGGTAGTAACAAATGTTTTGGCGGAGTCACCTAGTGCAG	17400 fluorescence intensity (a.u.)
GCAGATTAGTCGTTAGTGGTGACAGAAACGGCAAAAGTGGCGGAGTCACCTAGTGCAG	6220 fluorescence intensity (a.u.)
CTTAATTAGCTAGCTAGCCGCTCAAGTCATATATATATATCGGAGTCACCTAGTGCAG	21100 fluorescence intensity (a.u.)
ATTGTATGTTAATTGTGCACCTTTTGATCGATGGAGACGACGGAGTCACCTAGTGCAG	5200 fluorescence intensity (a.u.)
